# Reference: PubChem BioAssay AID1347071 (National Center for Advancing Translational Sciences (NCATS), 2019)
# In all, about 410,000 compounds went through this assay and about 260 (0.063%) were called active. Inconclusive means that the source gave no clear call. Such entries were picked first, then a sample of the others. Calls come from the whole dose curve; as a rule, active = well fitted activation curve with a large enough effect; inconclusive = small, poorly fitted or top-dose-only effect; inactive = no such curve, though single readings can be large or run the other way. No potency is given beside an inconclusive call; the fits are too rough.
# Test: qHTS for compounds that reverse cellular toxicity of Amyloid beta (A-beta) peptide in yeast: Primary Screen; note: nearly all actives have a fitted effect of over 55% in size
# Details: yeast expressing A-beta42, growth rescue, OD600, 48 h; growth rescue: at 46.1 µM (top of the series), 0% DMSO, 100% iron-clioquinol control
# Outline: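 Yeast A-beta toxicity model in growth medium with pinned compounds, 48 h at 30 C; growth read as absorbance at 600 nm. Normalized to FeCl3/clioquinol equimolar mix (positive) and DMSO (negative).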
# Potency is the fitted concentration of half-maximal effect; tags give direction and shape of the fitted curve.
SMILES,Potency,growth rescue
O=C(Nc1ccc(Br)cc1)c1cccc(OC(=S)N2CCOCC2)c1,"inconclusive [activator, partial curve, poor fit]",
Cc1cc(C)nc(Nc2ncc(O)n2-c2ccc(C)c(Cl)c2)n1,"inconclusive [activator, single point]",
CC(C)(C)NC(=O)NC(=O)COC(=O)c1nc(-c2ccccc2)n(-c2cccc(C(F)(F)F)c2)n1,,inactive: -8.54%
CC(C)n1c(=S)[nH]c2cc(C(F)(F)F)ccc21,active: 12.6 µM,
CC(=O)c1cccc(Nc2nc(-c3ccccc3)cs2)c1,"inconclusive [activator, full curve, poor fit]",
Cc1noc(C)c1S(=O)(=O)N1CCC(Cc2ccccc2)CC1,"inconclusive [activator, partial curve, poor fit]",
COc1ccc(C(=O)NNC(=S)NC(=O)c2ccc(F)cc2)cc1Br,"inconclusive [activator, full curve, poor fit]",
CCCCOc1ccc(C(O)C(CN2CCOCC2)c2ccccc2)cc1 (configuration not stated),"inconclusive [activator, single point]",
CC(C)C(=O)Nc1cccc(C(=O)Nc2ccccc2C(=O)O)c1,"inconclusive [activator, partial curve, poor fit]",
O=C(NC12CC3CC(CC(C3)C1)C2)c1ccc(COc2ccc(Cl)cc2[N+](=O)[O-])o1,"inconclusive [activator, single point]",
COc1cccc(Cn2c(=O)cc(C)c3c(C)nn(-c4ccc(C)cc4)c32)c1,,inactive: -4.12%
Oc1ccccc1/C=N/NC(=S)NC1CC2CCC1C2 (configuration not stated),"inconclusive [activator, full curve, poor fit]",
Cc1c(NS(=O)(=O)c2cccc(C(=O)NCc3ccncc3)c2)c(=O)n(-c2ccccc2)n1C,"inconclusive [activator, single point]",
O=C(CC1CC2CCC1C2)NC1CCCCCCC1 (configuration not stated),"inconclusive [activator, single point]",
COc1ccc(Cl)cc1NC(=O)CN(C)C(=O)/C=C/c1ccco1,,inactive: 7.87%
CCc1ccc2oc(=O)cc(CN(C)Cc3ccccc3)c2c1,,inactive: 19.8%
COc1ccc2nc(N=NC3=C(O)CC(C)(C)CC3=O)sc2c1,"inconclusive [activator, full curve, poor fit]",
COc1ccc(NC(=O)Nc2c(O)ccc3ccccc23)cc1,"inconclusive [activator, partial curve, poor fit]",
COc1ccccc1N1CCN(c2ccc([N+](=O)[O-])cn2)CC1,"inconclusive [activator, single point]",
O=C(O)CCCN1C(=O)c2ccc(C(=O)c3cccc([N+](=O)[O-])c3)cc2C1=O,"inconclusive [activator, partial curve, poor fit]",
COc1ccc(/C=N/Nc2nc(Nc3ccccc3)nc(N3CCCCC3)n2)c(OC)c1,"inconclusive [activator, partial curve, poor fit]",

SMILES,Potency,growth rescue
CC1CN(CC(O)COC(c2ccc(Cl)cc2)c2ccc(Cl)cc2)CC(C)O1 (configuration not stated),"inconclusive [activator, partial curve, poor fit]",
COc1cccc(CN(C)C(=O)c2ccccc2Sc2ccccc2C#N)c1,"inconclusive [activator, partial curve, poor fit]",
COc1ccc(CNc2nc(-c3ccco3)nn2S(=O)(=O)c2ccc3ccccc3c2)cc1OC,,inactive: -8.67%
COc1ccc(NC(=S)NC(=O)c2cccnc2)cc1,"inconclusive [activator, single point]",
O=C(NC(=S)Nc1ccccc1O)c1cncc(Br)c1,"inconclusive [activator, full curve, poor fit]",
c1ccc(Cc2nc3ccccc3n2Cc2ccccc2)cc1,"inconclusive [activator, partial curve, poor fit]",
Cc1ccc(-c2noc(CN(C3CCCCC3)S(=O)(=O)c3ccc(F)cc3)n2)cc1,,inactive: -4.85%
COc1ccc(OCCn2cc(C(=O)c3ccco3)c3ccccc32)cc1,"inconclusive [activator, single point]",
C/C(N)=C(/C#N)C(=O)CSc1nnc(C)n1-c1ccccc1,"inconclusive [activator, single point]",
O=C(O)CNc1ccccc1C(=O)O,"inconclusive [activator, partial curve]",
CC(C)(C)OC(=O)COc1cc(OCC(=O)OC(C)(C)C)c2c(=O)cc(-c3ccccc3)oc2c1,,inactive: 8.33%
CCCCC(CC)C(=O)NCc1ccc(F)cc1 (configuration not stated),"inconclusive [activator, partial curve, poor fit]",
[O-]C1=N/[N+](=C/c2ccccc2)CC1,"inconclusive [activator, single point]",
CC(C)CN(CC(C)C)C(=S)NC1CCCCC1,"inconclusive [activator, single point]",
S=C(NC1CCCCC1)N1CCOCCOCCN(C(=S)NC2CCCCC2)CCOCCOCC1,"inconclusive [activator, single point]",
CC(=O)Nc1ccc(SCC(=O)N(CCC#N)c2cc(C)cc(C)c2)cc1,"inconclusive [activator, partial curve, poor fit]",
COc1ccc(S(=O)(=O)Nc2ccc(F)c(Cl)c2)cc1OC,"inconclusive [activator, single point]",
COc1ccc(-c2cc3c(c4c2ccn4C)C2CCC3O2)cn1 (configuration not stated),,inactive: -2.14%
O=C(c1ccccc1F)N(Cc1ccccc1)Cc1ccccc1,"inconclusive [activator, partial curve]",
O=c1c2ccccc2nc2n1CCCN2,,inactive: 2.33%
COc1ccc(-n2c(-c3ccccc3)nc(=S)c3c2CCCC3)cc1,"inconclusive [activator, full curve, poor fit]",
